This note sets out measurements from ChEMBL document CHEMBL4888484, “Replenishing the malaria drug discovery pipeline: Screening and hit evaluation of the MMV Hit Generation Library 1 (HGL1) against asexual blood stage Plasmodium falciparum ,using a nano luciferase reporter read-out” (2022).

The structures appear in SMILES notation. About 540 (0.36%) of roughly 150,000 compounds showed an effect of 50% or more. This is one part of the list.

This assay deals with Plasmodium falciparum. Put plainly: Primary screen in NF54 nanoGlo assay, in single point, at 2uM, 72h; a lower Z score goes with more inhibition. Type of assay: functional, Erythrocyte. Conditions: timepoint 72 hour.
As for `C#CC[C@H](Nc1nc(C)nc2scc(C)c12)C(N)=O`, the % Inhibition – broadly, the drop in the measured response relative to a control, in per cent – amounted to 9% and the Z score is listed as -1.48.
As for `O=C(Nc1cc(S(=O)(=O)N2CCCC2)ccc1O)C1CCCCC1`, the “% Inhibition” value was determined as 5% and the Z score is -0.83.
On the same counts, the results for `COc1ccc(C(=O)N[C@H]2CCCNC2=O)c(O)c1` are -8% and 1.65.
For `CCC1CN(S(=O)(=O)c2cccc3ccoc23)C1`, in that order: -18% and 2.76.
On the same counts, the results for `Cc1nn(C)cc1CNC(=O)Cn1nc(C)n(CCc2ccccc2)c1=O` are -3% and 0.52.
For the compound `CC1(C)c2ccccc2N2CC(=O)N[C@@]21/C=C/c1ccc(Cl)cc1`, the “% Inhibition” value was -10% and the Z score is 1.14.
With `Cc1nc2c([nH]1)CC[C@H](C(=O)NCc1ccc(C3CC3)cc1F)C2`, the “% Inhibition” value is -8% and the Z score was 0.83.
On the same counts, the results for `CCC1(O)CN(c2cccc(C#N)n2)C1` are -6% and 0.64.
On the same counts, the results for `O=C(c1nn[nH]c1-c1ccccc1)N1CCC(O)(C2CCC2)CC1` are 1% and -0.21.
For `O=C(NC1CC1)C(c1ccccc1)N1CCC(c2ccccc2)C1` (stereo unspecified), in that order: 0% and -0.05.
In the case of `CN(C)C(=O)N1CCN(CCOc2ccc(F)cc2)[C@@H]2CS(=O)(=O)C[C@@H]21`, the “% Inhibition” value is reported as 4% and the Z score is -0.81.
On the same counts, the results for `CCc1cccc(C)c1NC(=O)[C@@H]1CN(S(=O)(=O)c2ccc(C)cc2)c2ccc(C)cc2O1` are 5% and -0.63.
On to `C=CCn1nc([C@@H]2CCCO2)n(C)c1=O`, for which the “% Inhibition” value is listed as 4% and the Z score is reported as -0.7.
Take `CCc1ccc(NC(=O)C23CCC(C)(C(=O)C2=O)C3(C)C)cc1` (stereo unspecified): the “% Inhibition” value was -25% and the Z score came out at 4.76.
For `O=C(Nc1ccc2c(c1)OCO2)N1CC[C@H](Oc2ncccn2)C1`, in that order: -15% and 2.4.
On the same counts, the results for `C[C@H]1CN(Cc2ccc3c(c2)CCO3)CCN1CC(F)(F)F` are -1% and 0.24.
Consider `c1nc(N2CCC3(CCCO3)CC2)c2nc[nH]c2n1`, for which the “% Inhibition” value stood at 2% and the Z score was -0.39.
On the same counts, the results for `Cc1cc(C(=O)Cn2cnc(C#N)n2)c(C)n1C(C)C` are 2% and -0.28.
On the same counts, the results for `CCN(CC)S(=O)(=O)NC(=O)CCc1cc(Cl)cs1` are 2% and -0.25.
With `COC(=O)[C@H]1CC12CCN(S(=O)(=O)Cc1cccc(F)c1)CC2`, the “% Inhibition” value was -17% and the Z score was 1.95.
Turning to `CC[C@H](C)C(=O)NCCc1ccsc1`, the “% Inhibition” value is given as -13% and the Z score stood at 2.22.
For `Cn1cc(C[C@H](O)C(=O)NC2CCC3(CCCCC3)CC2)cn1`, in that order: 6% and -0.73.
For `C[n+]1c(CCc2ccccc2)sc2ccccc21`, in that order: -7% and 1.33.
On the same counts, the results for `CCNc1ncc(C(=O)N2CCN([C@H]3CCCC[C@@H]3O)CC2)cn1` are 0% and -0.02.
With `CCc1ncc(CN[C@@H]2CCC[C@H]2OC(F)F)cn1`, the “% Inhibition” value was determined as 3% and the Z score was -0.38.
On the same counts, the results for `O=C(c1c[nH]c(C(=O)N2CCCC2)c1)N1CCN(c2ncccn2)CC1` are -8% and 1.56.
On the same counts, the results for `CCCN(CCC)C(=O)c1cc(OCC)c(OCC)c(OCC)c1` are -7% and 1.36.
On the same counts, the results for `O=C(Cc1csc(-c2ncccn2)n1)OC[C@H]1CCCCO1` are -9% and 0.91.
As for `Cn1cc(C(NC(=O)c2c[nH]c3c(F)cccc3c2=O)[C@H]2C[C@@H](O)C2)cn1` (stereo partly specified), the “% Inhibition” value was -4% and the Z score stood at 0.57.
For the compound `O=C(CN1CCCCCC1)Nc1nc(-c2ccccc2)cs1`, the “% Inhibition” value was found to be 10% and the Z score is recorded as -1.32.
For `Cc1cc2c(N)c3ccc(N(C)C)cc3nc2cn1`, in that order: 12% and -2.
On the same counts, the results for `Cc1ccc(C)c(NC(=O)N2C[C@H](NS(=O)(=O)N(C)C)[C@@H](C(C)C)C2)c1` are -10% and 1.95.
On the same counts, the results for `Cc1cccc(C(=O)N2c3ccccc3C[C@@H]2C)n1` are -10% and 0.86.
Consider `CCC[C@H](C)NCc1ccccc1OC`, for which the “% Inhibition” value is on record as -1% and the Z score was found to be 0.07.
For `CC1CCCCC1N(C)C(=O)Cn1cnc(C#N)c1C#N` (stereo unspecified), in that order: -7% and 0.71.
For `CCc1cc(NC(=O)[C@H]2CC[C@@H](C(=O)N3CCCC3)O2)ccc1C`, in that order: 7% and -1.09.
On the same counts, the results for `COc1cccc(-c2nc(NCc3ccccc3)nc3nn(-c4ccc(Cl)cc4)c(N)c23)c1` are 14% and -1.76.
`C#CCCCCC(=O)N(C)c1ncccc1OC`: the “% Inhibition” value is on record as -7% and the Z score was 1.16.
On the same counts, the results for `C[C@H](Nc1ccc2c(c1)OC1(CCCCC1)O2)C(=O)N1CCNC1=O` are -4% and 0.37.
As to `c1csc(N2CCN([C@H]3CCOC4(CCOCC4)C3)CC2)n1`, the “% Inhibition” value is on record as -3% and the Z score is reported as 0.53.
In the case of `Cc1cc(=O)n(CCN(C)Cc2ccoc2)c(=O)[nH]1`, the “% Inhibition” value amounted to 15% and the Z score is -3.1.
As to `NC(=O)c1ccc(C(=O)NCC2(c3ccccc3)CC2)cn1`, the “% Inhibition” value is reported as -8% and the Z score is recorded as 0.75.
Regarding `CC1CN(c2nnc(C(F)(F)F)s2)CC(C2CC2)O1` (stereo unspecified), the “% Inhibition” value is -8% and the Z score is recorded as 0.83.
